This note sets out measurements from publication PMC12148503, “Molecular Basis of Interchain Disulfide Bond Formation in BMP-9 and BMP-10” (Journal of molecular biology, 2025).

The assay concerns the target T1, BMP-9 monomer (cysteinylated BMP-9 growth factor) (human, UniProt Q9UK05 320-429, A321S, Cys-392 cysteinylated (cysteine attached by a disulfide, +119 Da)).
T1 construct: Human BMP-9 growth factor released by factor Xa from Pro-(X)-BMP-9 (proBMP9 residues 23-429, A321S, furin site RRKR replaced by IEGR); Monomer without the interchain disulfide; crystallises as a non-covalent dimer; also called purified BMP-9 monomer; Cysteinylated BMP-9 WT Monomer; source: expi293 (suspension HEK293), secreted as Pro-(X)-BMP-9; IMAC, factor Xa digestion, C18 reverse phase
T1 sequence (looked up): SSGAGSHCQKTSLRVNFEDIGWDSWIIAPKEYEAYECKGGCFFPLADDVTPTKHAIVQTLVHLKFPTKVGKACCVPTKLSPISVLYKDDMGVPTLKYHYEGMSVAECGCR
The experiment in a line: SEC-MALS; BMP-9 monomer injected at 6.58 μM as 1:1.6 BMP-9M:ActRIIa; Superdex 75 Increase 10/300 GL; 150 mM NaCl, 100 mM Tris pH 7.5; monomer to non-covalent dimer. The settings on record: both partners purified. On the technique in general: In gel filtration, larger molecules generally elute earlier.

B1: ActRIIa extracellular domain (human activin receptor type-2A […]) (receptor)
chain: not shown
notes: Human activin receptor type-2A, […]; Deglycosylated with PNGase F; also called ActRIla; source: expi293 (suspension HEK293), secreted; nickel column, PNGase F deglycosylation, SEC (Superdex 75)
On to B1, for which the binding result is reported as “binds”.
